For 34 variants, self-cleavage results are on record in the RNAGym collection of RNA variant scans (doi:10.1093/nar/gkz1192).

B1: CPEB3 Ribozyme (parent)
chain: UAACAGGGGGCCACAGCAGAAGCGUUCACGUCGCAGCCCCUGUCAGAUUCUGGUGAAUCUGCGAAUUCUGCUGUAUAUCUC

Read counts are not given, so values of variants with three or more changes are uncertain.

The data set covers variants of B1. Kind of data set: self-cleavage, relative activity (ratio to wild type); higher = more cleavage; in vitro, sequencing. Summed up: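 For each CPEB3 ribozyme variant, relative activity is its cleaved/total read fraction divided by the unmutated ribozyme's. Barcoded error-prone PCR libraries were transcribed by T7 RNA polymerase (5 hours, 37°C) and held in DNase I for 15 min before an EDTA stop, with cleavage occurring throughout. Template-switching reverse transcription and Illumina sequencing were used to read the RNAs. A 5-read minimum applied, and results are the mean of three batches.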
In the case of UAACAGGGGGGCACAGCAGAAGCGUUUACGUCGCAGCCCCUGUCGGAUUCUGGUGAAUCUGCGAAUUCUGCAGUAUAUCUC [C11G C27U A45G U72A], the self-cleavage came to 0.07.
Turning to UAACAGGGGGGCACAGCUGAAGCGUUCACGUCGCAGCCCCAGUCAGAUUCUGGUGAAUCUGCGAAUUCUGCUGUAUAUCUC [C11G A18U U41A], the self-cleavage amounted to 0.09.
Then UAACAGGGGGGCACAGCAUAAGCGUUUACGUCGCUGCCCCUGUCAGAUUCUGGUGAAUCUGCGAGUUCAGCUGUAUAUCUC [C11G G19U C27U A35U A65G U69A], with 0.05.
In the case of UAACAGGGGGGCACAGCUGAAGCGUUCACGUCGCAGCCCCUGUCAGAUUCUGGUGAAUCCGCGAAUUCUGCUGUAUACCUC [C11G A18U U60C U78C], the self-cleavage stood at 0.08.
As for UAACAGGGGGGCACAGCAGAAGCGUUCACGUCGCAGCCCCUAUCAGAUUCUGGUGAAUCUGCGAAUUCAGCUGUAUAUCUC [C11G G42A U69A], the self-cleavage was determined as 0.18.
To UAACAGGGGGGGACAGCAGAAGCGCUCACGUCGCAGCCCCUGUCAGAUUCUGGUGAGUCUGCGAAUUCAGCUGUAUAUCUC [C11G C12G U25C A57G U69A] belongs 0.11; to UAACAGGGGGGCACAGCAGAAGCGUUCACGACGCGGCCCCUGUCAGAUUCUGGUGAAUCUGCGAAAUCCGCUGUAUAUCUC [C11G U31A A35G U66A U69C], 0.06.
In the case of UAACAGGGGGGCACAGCAGAAGCGAUCACGUCGCAGCCCCAGUCAGAUUCUGGUGAAUCUGCGAAUUCCGCUGUUUAUCUU [C11G U25A U41A U69C A75U C81U], the self-cleavage stood at 0.04.
On to UAACAGGGGGGCACAGCAGAAGCGUUCACGUCGCCGCCCCUGUCAGAUUCUGGUGAAUCUGCGAAUUCUGCUGAAUAUCUC [C11G A35C U74A], for which the self-cleavage came out at 0.15.
Then UAACAGGGGGGCACAGCAGAAGCGUUCUCGUCGCAGCCCCUGUCCGAUUCUGGUGAAUCUGUGAGUUCUGCCGUAUAUCUC [C11G A28U A45C C62U A65G U72C], with 0.06; and UAACAGGGGGGCACAGCAGAAGCGUUCACGCCGCAGCCCCUGUCAGAUUCUGGAGAAUCUGCGAAUUCUGCUGUAUUUCUC [C11G U31C U54A A77U], with 0.18.
For UAACAGGGGGGCACAGCAGAAGCGUUCACGUCGCAGCCCCUGUCAGAUUCUGGUGAGUCUGCGAAUUCCGCUGUACUUCUC [C11G A57G U69C U76C A77U], the self-cleavage turned out to be 0.04.
To UAACAGGGGGGCACAGCAGAAGCGUUCGCGUCGCAGCCCCUGUCAGAUUCUGGUGAAUCUGCGUAUUCUGCUGUAAAUCUC [C11G A28G A64U U76A] belongs 0.13; to UAACAGGGGGGCACAGCAGAAGCGACCACGUCGCAGCCCCUGUCAGAUUCUGGUGAAUCUGCGCAUUCUGCUGUAUAUCUC [C11G U25A U26C A64C], 0.12; to UAACAGGGGGGCACAGCGGAAGCGUUCACGUCGCAGCCCCUGUCAGAUCCUGGUGAACCUGCGAAUUCUGCUGUAAAUCUC [C11G A18G U49C U58C U76A], 0.03.
To UAACAGGGGGGCACAGCAGAAGCGCUCACGUCGCAGCCCCUGUCAGGUUCUGGUGCCUCUGCGAAUUCUGCUGUAUUUCUC [C11G U25C A47G A56C A57C A77U] belongs 0.05.
Regarding UAACAGGGGGGCACAGCAGAAGCGUCCACGUCGCAGCCCCUGUCAGAUCCUGGUGAAUCUGCGAAUUCUGCUGUAUAUCUC [C11G U26C U49C], the self-cleavage was determined as 0.07.
UAACAGGGGGGCACAGCAGAAGCGUACACGUCGCAGCCCUUGUCAGAUUCUGGUGAAUCUGCGAAUUCUGCUGUAUAUCUC [C11G U26A C40U]: the self-cleavage is 0.11.
On to UAACAGGGGGGCACAGCAGAAGCGUUCACGUCGCAGCCCAUGUCAGAUUCAGGUGAGUCUGCGAGUUCUGCAGUAUAUCUC [C11G C40A U51A A57G A65G U72A], for which the self-cleavage was 0.03.
Turning to UAACAGGGGGGCACAGCAGGAGCGUUCACGUCGCAGCCCCUGUCAGAUUCUGGUGAAUCUGCGAAUUCAGCUGUAUAUCUC [C11G A20G U69A], the self-cleavage came to 0.07.
For the variant UAACAGGGGGGCACAGCAGAAGCGUUCAAGUCGCAGCCCCUGUCAGAUUCUGGUGAAUCAGCAAAUUCUGCUGUAUAUCUC [C11G C29A U60A G63A], the self-cleavage stood at 0.05.
In the case of UAACAGGGGGGCACAGCAGGAGCGUUCACGCCGCAGCCCCUGUCAGAUUCUGGUGAAUCUGCGAAUUCUGCUGUAUAUCUC [C11G A20G U31C], the self-cleavage turned out to be 0.1.
To UAACAGGGGGGCACAGCAGUAGCGUUCUCGUCGCAGCCCCUGCCAGAUCCUGGUGAACCUGCGAAUUCUGCUGUAUAUCUC [C11G A20U A28U U43C U49C U58C] belongs 0.14; to UAACAGGGGGGCACAGCAGUAGCGUUCACGUCGCAGCCCCUGUCAGAUUCCGGUGAAUCUGCGAAUUCUGCUGUAUAUCUC [C11G A20U U51C], 0.37; to UAACAGGGGGGCACAGCAGAAACGUUCACGUCGCAGCCCCUGUCGGAUUCUGGUGAGUCCGCGAAUUCCGCAGUAUAUCUC [C11G G22A A45G A57G U60C U69C U72A], 0.02.
To UAACAGGGGGGCACAGCAGAGGCGUUCACGUCGCAGCCCCUGUCAGAUCCUGGUGAGUCUGCGAAUUCCGCUGUAUAUCUC [C11G A21G U49C A57G U69C] belongs 0.12.
Then UAACAGGGGGGCACAGCAGUAGCGUUCACGGCGCAGCCCCUGCCAGAUUCUGGUGAAUCUGCGAAUUCUGCUGUAUAUCUC [C11G A20U U31G U43C], with 0.31; and UAACAGGGGGGCACAGCAGAAGCGUUCACGUCGCAGCCCCUGACAGAUUCUGGUGAAUCUGCGAAUUCUGCUGUGUAUCUC [C11G U43A A75G], with 0.33.
For UAACAGGGGGGCACAGCAGAAGCUCUCACGUCGCAGCACCUGUCAGAUUCUGGUGAAUCUGCGAAUUCUGCUGUAUAUCCC [C11G G24U U25C C38A U80C], the self-cleavage worked out at 0.04.
With UAACAGGGGGGCACAGCUGAAGCGCUCACGUCGCCGCCCCUGUCAGAUUCUGGUGAAUCUGCGAAUUCUUCUGUAUAUCUC [C11G A18U U25C A35C G70U], the self-cleavage came out at 0.11.
UAACAGGGGGGCACAGCAGAAGCGUUCACGUCGCAGCCCCUGUCUGAUCCUGGUGAAUCUGCGAAUUCUGCUGUAUAUCUC [C11G A45U U49C]: the self-cleavage is 0.07.
To UAACAGGGGGGCACAGCAGAAGCGUUCACGUCGCAGCCCCCGUCAGGUUCUGGUGAAUCUGCGAAUUCUGCUGUAUAUCCC [C11G U41C A47G U80C] belongs 0.39; to UAACAGGGGGGCACAGCAGAAGCGUUCUCGUCGCAGCCCCAGUCAGAUUCUGGUGAAUCUGCGAAUUCAGCUGUAUAUCUC [C11G A28U U41A U69A], 0.05; to UAACAGGGGGGCACAGCAGAAGCGUUCACGUCGCAGCCGCCGUCAGAUUCUGGUGAAUCUGCGAAUUCUGCUGUAUAUCUC [C11G C39G U41C], 0.57.
